The other results are listed elsewhere or left out.
Legend:
Assay in all cases: glycan array binding signal (z-score within array); higher = stronger binding
Conditions in all cases: glycan notation: IUPAC condensed, linker removed
[1] = biological target: Neu5Ac(a2-3)Gal(b1-4)GlcNAc(b1-3)[Neu5Ac(a2-3)Gal(b1-4)GlcNAc(b1-6)]GalNAc
In short: (§1)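 Glycan array data were curated from 3228 arrays in the Consortium for Functional Glycomics database and kept only where the protein sequence was available. Glycan names were converted to IUPAC-condensed notation, and columns mapping to the same glycan were averaged. The binding signal is a within-array Z-score, averaged across arrays of the same protein sequence at different concentrations or buffers and across linkers. Negative Z-scores can be read as non-binding.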

[2] = biological target: Neu5Ac(a2-3)Gal(b1-4)GlcNAc(b1-6)GalNAc
In short: as §1

[3] = biological target: Neu5Ac(a2-3)Gal(b1-4)GlcNAc(b1-6)[Gal(b1-3)]GalNAc
In short: as §1

[4] = biological target: Neu5Ac(a2-3)Gal(b1-4)GlcNAc(b1-6)[Neu5Ac(a2-3)Gal(b1-3)]GalNAc
In short: as §1

[5] = biological target: Neu5Ac(a2-3)Gal(b1-4)GlcNAc6S
In short: as §1

[6] = biological target: Neu5Ac(a2-3)Gal(b1-4)[Fuc(a1-3)]GlcNAc
In short: as §1

[7] = biological target: Neu5Ac(a2-3)Gal(b1-4)[Fuc(a1-3)]GlcNAc(b1-2)Man
In short: as §1

[8] = biological target: Neu5Ac(a2-3)Gal(b1-4)[Fuc(a1-3)]GlcNAc(b1-3)Gal
In short: as §1

[9] = biological target: Neu5Ac(a2-3)Gal(b1-4)[Fuc(a1-3)]GlcNAc(b1-3)Gal(b1-4)GlcNAc
In short: as §1

[10] = biological target: Neu5Ac(a2-3)Gal(b1-4)[Fuc(a1-3)]GlcNAc(b1-3)Gal(b1-4)[Fuc(a1-3)]GlcNAc(b1-3)Gal(b1-4)[Fuc(a1-3)]GlcNAc
In short: as §1

[11] = biological target: Neu5Ac(a2-3)Gal(b1-4)[Fuc(a1-3)]GlcNAc(b1-3)GalNAc
In short: as §1

[12] = biological target: Neu5Ac(a2-3)Gal(b1-4)[Fuc(a1-3)]GlcNAc(b1-6)[Gal(b1-3)]GalNAc
In short: as §1

[13] = biological target: Neu5Ac(a2-3)Gal(b1-4)[Fuc(a1-3)]GlcNAc(b1-6)[Neu5Ac(a2-3)Gal(b1-3)]GalNAc
In short: as §1

[14] = biological target: Neu5Ac(a2-3)Gal(b1-4)[Fuc(a1-3)]GlcNAc6S
In short: as §1

[15] = biological target: Neu5Ac(a2-3)Gal6S(b1-4)GlcNAc
In short: as §1

[16] = biological target: Neu5Ac(a2-3)Gal6S(b1-4)[Fuc(a1-3)]GlcNAc
In short: as §1

Neu5Ac(a2-3)GalNAc = biological target: Neu5Ac(a2-3)GalNAc
In short: as §1

[17] = biological target: Neu5Ac(a2-3)GalNAc(b1-4)GlcNAc
In short: as §1

[18] = biological target: Neu5Ac(a2-3)[GalNAc(b1-4)]Gal(b1-4)Glc
In short: as §1

[19] = biological target: Neu5Ac(a2-3)[GalNAc(b1-4)]Gal(b1-4)GlcNAc
In short: as §1

[20] = biological target: Neu5Ac(a2-3)[GalNAc(b1-4)]Gal(b1-4)GlcNAc(b1-3)GalNAc
In short: as §1

[21] = biological target: Neu5Ac(a2-3)[Neu5Ac(a2-6)]GalNAc
In short: as §1

Neu5Ac(a2-6)Gal = biological target: Neu5Ac(a2-6)Gal
In short: as §1

[22] = biological target: Neu5Ac(a2-6)Gal(b1-3)GlcNAc(b1-3)[Gal(b1-4)GlcNAc(b1-6)]Gal(b1-4)Glc
In short: as §1

Neu5Ac(a2-6)Gal(b1-4)Glc = biological target: Neu5Ac(a2-6)Gal(b1-4)Glc
In short: as §1

[23] = biological target: Neu5Ac(a2-6)Gal(b1-4)GlcNAc
In short: as §1

[24] = biological target: Neu5Ac(a2-6)Gal(b1-4)GlcNAc(b1-2)Man
In short: as §1

[25] = biological target: Neu5Ac(a2-6)Gal(b1-4)GlcNAc(b1-2)Man(a1-3)Man(b1-4)GlcNAc(b1-4)GlcNAc
In short: as §1

[26] = biological target: Neu5Ac(a2-6)Gal(b1-4)GlcNAc(b1-2)Man(a1-3)[Gal(b1-4)GlcNAc(b1-2)Man(a1-6)]Man(b1-4)GlcNAc(b1-4)GlcNAc
In short: as §1

[27] = biological target: Neu5Ac(a2-6)Gal(b1-4)GlcNAc(b1-2)Man(a1-3)[GlcNAc(b1-2)Man(a1-6)]Man(b1-4)GlcNAc(b1-4)GlcNAc
In short: as §1

[28] = biological target: Neu5Ac(a2-6)Gal(b1-4)GlcNAc(b1-2)Man(a1-3)[GlcNAc(b1-4)][Neu5Ac(a2-6)Gal(b1-4)GlcNAc(b1-2)Man(a1-6)]Man(b1-4)GlcNAc(b1-4)GlcNAc
In short: as §1

B1: LgFlo1 (Saccharomyces pastorianus), B3IUA8 (protein)
chain: SGSTQACLPVGSRKNGMNVNFYKYSLQDSTTYSDPQYMAYKYSDTKKLGSVSGQTHLSIYYGPNTAFWNTASWSSDLFGFYTTPTNVTVEMTGYFLPPQTGSYTFKFATVDDSAILSVGGSIAFECCAQEQPPITSTDFTINGIKPWDAATPTDIKGSTYMYAGYYYPIKIVYSNAKALARLPVSVVLPDGTEVNDDFEGYVYSFDDDLSQSNCTIPDPSKHTTS
glycan array binding signal (z-score) [1]: -0.262 | glycan array binding signal (z-score) [2]: -0.054 | glycan array binding signal (z-score) [3]: -0.09 | glycan array binding signal (z-score) [4]: -0.221 | glycan array binding signal (z-score) [5]: -0.326 | glycan array binding signal (z-score) [6]: -0.099 | glycan array binding signal (z-score) [7]: -0.151 | glycan array binding signal (z-score) [8]: -0.076 | glycan array binding signal (z-score) [9]: -0.298 | glycan array binding signal (z-score) [10]: -0.167 | glycan array binding signal (z-score) [11]: 1.51 | glycan array binding signal (z-score) [12]: -0.279 | glycan array binding signal (z-score) [13]: -0.12 | glycan array binding signal (z-score) [14]: -0.328 | glycan array binding signal (z-score) [15]: -0.229 | glycan array binding signal (z-score) [16]: -0.151 | glycan array binding signal (z-score) (Neu5Ac(a2-3)GalNAc): -0.219 | glycan array binding signal (z-score) [17]: -0.152 | glycan array binding signal (z-score) [18]: 0.03 | glycan array binding signal (z-score) [19]: -0.152 | glycan array binding signal (z-score) [20]: -0.107 | glycan array binding signal (z-score) [21]: -0.356 | glycan array binding signal (z-score) (Neu5Ac(a2-6)Gal): -0.293 | glycan array binding signal (z-score) [22]: -0.357 | glycan array binding signal (z-score) (Neu5Ac(a2-6)Gal(b1-4)Glc): -0.305 | glycan array binding signal (z-score) [23]: -0.403 | glycan array binding signal (z-score) [24]: -0.331 | glycan array binding signal (z-score) [25]: -0.1 | glycan array binding signal (z-score) [26]: -0.38 | glycan array binding signal (z-score) [27]: -0.371 | glycan array binding signal (z-score) [28]: -0.203

Source: the supplement of paper PMC8728848
